PubChem BioAssay AID662 (National Center for Advancing Translational Sciences (NCATS), 2007)
Among all 71,000 compounds or so, about 1,800 (2.5%) were called active. The inconclusive results got no clear call from the source; some entries with a clear call stand among them for comparison. Calls follow the shape of the dose curve; as a rule, active = well fitted activation curve with a large enough effect in the signal ratio, with a control signal flat (not every such curve was filed as active); inconclusive = small, poorly fitted or top-dose-only effect, or effect the other way, or a change in a side signal; inactive = flat fitted curve, though single readings scatter; the % refers to the signal ratio. Potencies of inconclusive entries are doubtful fits and often do not repeat.

Test: Cell signaling CRE-BLA (Fsk stim); as to activity change, negative = inhibition: % of control where 0% means no effect
Conditions: CHO CRE-bla reporter (cAMP response element driving beta-lactamase), forskolin EC10, beta-lactamase ratio; activity change, negative = inhibition: at 38.2 µM (top of the series) unless noted
Method in brief: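 Titrated compounds plus EC10 NKH 477 on CHO CRE-bla cells, 3 h, 37 °C. CCF4, 2 h RT. Ratio 460/530 nm → AC50.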
Potency is read from the fitted curve at half-maximal effect; tags tell the direction and shape of the fitted curve.

Compound | activity change, negative = inhibition | Potency
Clc1ccc(OCc2nn3c(-c4ccncc4)nnc3s2)cc1 | inactive | 
NC(=O)c1oc2ccc(Cl)cc2c1N | inconclusive: -28.1% | 
N#Cc1cccc(NC(=O)N2CC[C@@]3(CCCN(C(=O)c4cnccn4)C3)C2)c1 | inactive | 
COCCNC(=O)C(c1ccco1)N(Cc1ccc(OC)cc1)C(=O)Cn1nnc2ccccc21 (configuration not stated) | inconclusive: -1.09% [cytotoxic] | 
COc1ccccc1NC(=O)CN1CCN(c2ccc(Cl)cc2)CC1 | inconclusive: 20% | 
O=C(O)C(=Cc1ccc(-c2ccccc2)cc1)C(=O)O | inconclusive: -13.6% [at 7.6 µM] | 
CC(=O)Nc1cc2ccc(OC(C)=O)cc2oc1=O |  | inconclusive: 3.16 µM [rising, full curve]
C=C1C(=O)O[C@H]2C[C@@]3(C)CCCC(=C)[C@@H]3C[C@H]12 | inconclusive: -23.5% | 
COc1ccc2[nH]cc(CCNc3nc(-c4cccnc4)nc4ccccc34)c2c1 |  | inconclusive: 5.01 µM [rising, partial curve]
CC(C)n1cnc2cc(NCc3nc4ccccc4n3C)ccc21 | inconclusive: 28.7% | 
Cc1ccc2nc(NC(=O)CSc3nc4c(c(=O)n3C)SC(C)C4)sc2c1 (configuration not stated) |  | inconclusive: 10 µM [falling, partial curve]
O=C(C1CCCN1S(=O)(=O)c1cccc2cccnc12)N1CCn2c1nc1ccccc12 (configuration not stated) |  | inconclusive: 25.1 µM [rising, single point]
O=C1CCCc2nn(-c3ccccc3)c(-c3ccncc3)c21 |  | inconclusive: 12.6 µM [rising, partial curve, poor fit]
CCOC(=O)N1CCN(C(=O)c2ccc3nc4cc(Cl)ccc4c(=O)n3c2)CC1 |  | inconclusive: 0.158 µM [rising, full curve]
CC1CCC(C(=O)NC(C(=O)N2CCN(c3ccccn3)CC2)C(C)C)CC1 (configuration not stated) | inconclusive: 12.7% | 
O=C(NCCO)c1cc2ccccc2cc1O | inactive | 
NS(=O)(=O)c1ccc(CCNC(=O)CCCC2=NS(=O)(=O)c3ccccc3N2)cc1 | inconclusive: -9.66% | 
CCCS(=O)(=O)O | inconclusive: 9.69% [at 7.6 µM] | 
Cc1ccc(S(=O)(=O)Nn2c(C)ccc2C)cc1 | inactive | 
CCOC(=O)C1CCCN(C(=O)Cn2cnc3c2c(=O)n(C)c(=O)n3C)C1 (configuration not stated) |  | inconclusive: 3.98 µM [rising, partial curve, poor fit]
CCOC(=O)/C=C1\NC(C)(C)Cc2cc(OC)c(O)cc21 | inconclusive: 4.85% | 
COCCn1c(=O)c(-c2cc(F)cc(F)c2)nc2cnc(N3CCOCC3)nc21 |  | active: 6.31 µM
CCOC(=O)CC(=O)CSc1nc2c(c(C)c1C#N)CCC2 | inactive | 
N#CC1=C2SCN(c3ccccc3)CN2C(=O)CC1c1c(Cl)cccc1Cl (configuration not stated) | inconclusive: -27% | 
COc1ccc(N2CSC3=C(C#N)C(c4cc(OC)c(OC)cc4OC)CC(=O)N3C2)c(OC)c1 (configuration not stated) |  | inconclusive: 7.94 µM [rising, partial curve]
Cn1cc(-c2nc3cnc(Oc4ccccc4)nc3n(C)c2=O)c2ccccc21 |  | inconclusive: 3.98 µM [rising, partial curve]

Compound | activity change, negative = inhibition | Potency
COC(=O)c1ccc(NC(=O)c2ccc(CN3CCOCC3)cc2)cc1 | inactive | 
O=c1cc(-c2ccccc2)oc2c1ccc1ccccc12 |  | inconclusive: 5.01 µM [rising, full curve]
Cc1ccc(-n2c(C)nc3c(cnn3-c3ccc(F)cc3)c2=O)cc1C |  | inconclusive: 0.0158 µM [falling, full curve, poor fit]
CCCCCCCCCCCCCC(=O)O[C@H](CC(=O)O)C[N+](C)(C)C |  | inconclusive: 15.8 µM [falling, partial curve]
O=c1c2[nH]c3ccccc3c2ncn1CCCn1ccnc1 | inconclusive: -2.35% | 
c1ccc(OCc2nn3c(-c4ccncc4)nnc3s2)cc1 | inactive | 
COc1ccc2[nH]c(=O)c(CN(Cc3ccco3)C(=O)c3ccccc3)cc2c1 | inactive | 
CCCCn1c(SCC(=O)Nc2cc(NC(=O)c3ccco3)ccc2C)nc2ccccc2c1=O | inactive | 
O=C(COc1c(F)c(F)c(C(F)(F)F)c(F)c1F)Nc1ccc(N2CCOCC2)c(Cl)c1 | inconclusive: 18.2% [at 7.6 µM] | 
Oc1ccc(-c2csc(NCc3ccco3)n2)cc1 | inconclusive: -24.7% | 
CC(C)Nc1nc(C#N)nc(NC(C)C)n1 |  | inconclusive: 12.6 µM [rising, partial curve]
CCOC(=O)c1cnn(-c2cc(C)c3cc(C)cc(C)c3n2)c1N | inactive | 
Clc1ccc(-c2nc(-c3ccccn3)no2)cc1Cl |  | inconclusive: 0.398 µM [falling, single point]
CC(C)(C)C1CCc2nc(NC(=O)Cc3cn4ccsc4n3)sc2C1 (configuration not stated) |  | inconclusive: 20 µM [rising, single point]
CC1CCCCC1N1CCN(C(=O)c2cccc(F)c2)CC1 (configuration not stated) |  | inconclusive: 5.01 µM [falling, single point]
CS(=O)(=O)N1CCC[C@@]2(CCN(C(=O)Nc3cccc(C#N)c3)C2)C1 | inactive | 
COc1ccccc1-c1nnc(SCc2nc3ccccc3[nH]2)n1C | inconclusive: 28.4% | 
c1ccc(-c2cc(-c3nn4c(-c5ccco5)nnc4s3)c3ccccc3n2)cc1 |  | inconclusive: 7.94 µM [rising, partial curve]
COC(=O)[C@@]1(Cc2ccc(F)cc2)[C@@H]2[C@@H](CC(=O)[C@H]2CC(=O)C(=O)N2CCCC2)CN1C(=O)c1ccccc1 | inconclusive: -7.97% | 
CCn1c(=N)n(CC(O)COc2cccc(C)c2)c2ccccc21 (configuration not stated) | inconclusive: -10.6% | 
O=C(CSc1nnc(-c2cccs2)o1)N1CCc2ccccc21 | inactive | 
c1ccc2c(c1)nc(-c1ccncc1)n1nnnc21 | inactive | 
Cc1c2ccccc2c(C)c2c1ccc1ccccc12 |  | active: 25.1 µM
Cc1c(C(=O)NC2=NCCS2)oc2ccccc12 | inactive | 
COCCCN1C(=O)c2[nH]nc(-c3ccccc3O)c2C1c1cccc(Cl)c1 (configuration not stated) | inconclusive: 19.4% | 
Cc1ccc(S(=O)(=O)c2cc3c(=O)n4ccccc4nc3n(CC3CCCO3)c2=N)cc1 (configuration not stated) | inconclusive: 20.5% | 
